Values marked as one replicate rest on one cluster of the flow cell; about a third of the high ones do not repeat.
tested on: ATP; assay: switch fluorescence ratio, 500 uM ATP over buffer (Cy3 cluster intensity, sum of 5 cycles each) (fold (ratio)); higher = stronger signal-on switching upon ATP binding; sequences stand for … in TCGTCGGCAGCGTCAGATGTGTATAAGAGACAGTTTTTTTTTTTTTTTTTTTTTTTTT…TC; settings: aptamer strand: ATP DNA aptamer (quencher-CACCTGGGGGAGTATTGCGGAGGAAGG + anchor), 100 nM annealed; ATP concentration: 500 uM; one replicate
Outline: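 Clusters with intensities outside 100-1000 RFU were excluded. The remaining Cy3-labelled switching-strand clusters on a modified Illumina MiSeq flow-cell had been annealed to 100 nM quencher-labelled ATP aptamer and imaged in selection buffer, then after 15 min with 500 uM ATP at 22 °C, for five cycles separated by NaOH stripping and re-annealing. The fluorescence ratio, averaged per switch-domain sequence, is each cluster's summed target-cycle Cy3 intensity over its summed buffer-cycle Cy3 intensity.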
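Further: ATP exposure 15 min at 22 °C before imaging.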

Sequence	switch fluorescence ratio
TCGGCCCTTG	0.997
TCGGCCTTAC	2.19
TCGGCGCAAG	1.05
TCGGCGCAG	1.07
TCGGGACAGC	1.07
TCGGGAGGAG	1.04
TCGGGCATCC	0.98
TCGGGCCGCG	0.985
TCGGGCGCTT	1.07
TCGGGCTCCC	1.09
TCGGGCTTAA	1.02
TCGGGGACTT	0.979
TCGGGGATT	0.993
TCGGGGTGGT	1.02
TCGGGTGCAC	0.982
TCGGGTGTA	0.954
TCGGTAC	1.11
TCGGTACGTT	0.95
TCGGTAGTGT	0.95
TCGGTCCCG	1.01
TCGGTCGACT	1.02
TCGGTGATAA	1.06
TCGGTGATG	1.03
TCGGTGCGGG	0.982
TCGGTGGATT	0.967

Sequence	switch fluorescence ratio
TCGGTGGGCC	1.02
TCGGTGGTCT	0.992
TCGGTTCTAA	1.04
TCGTACGTCA	1.04
TCGTACTCGC	1.05
TCGTAGTAGG	0.94
TCGTCATTAG	1.06
TCGTCGGGCT	1.02
TCGTCGTTCA	1
TCGTCTCTGA	0.991
TCGTGAACAC	1.03
TCGTGATTGA	1.01
TCGTGCACCG	0.978
TCGTGCGAAT	1.03
TCGTGCGTAC	1.67
TCGTGCGTAG	0.997
TCGTGCTCTA	0.996
TCGTGGCAGT	1.03
TCGTGGCCTA	1.03
TCGTGGGCCA	0.963
TCGTGTCCCC	1.07
TCGTGTCTTT	0.993
TCGTGTGATC	1.08
TCGTTAAACG	1.03
TCGTTAGGTC	0.955

Sequence	switch fluorescence ratio
TCGTTATGCA	1.06
TCGTTCAACG	0.936
TCGTTCTCTG	0.967
TCGTTCTTCG	1.05
TCGTTGAAGC	0.938
TCGTTGACTG	1.05
TCGTTGCGTG	1.01
TCGTTTCGGC	1.01
TCGTTTTAAT	0.978
TCTAAAGGGG	1.28
TCTAAATATT	0.979
TCTAAATGAT	1.01
TCTAACACAG	1.01
TCTAACTTCA	1.06
TCTAAGTGCG	1.05
TCTAATTGTG	0.967
TCTAATTTGT	1.04
TCTACCCAGT	1.1
TCTACCGCTC	2.42
TCTACGAGCC	1.16
TCTACTAGGG	1.31
TCTACTGGCC	0.967
TCTACTTGAC	1.33
TCTAGCCTGC	0.967
TCTAGCTCAT	1.01

Sequence	switch fluorescence ratio
TCTAGCTTG	0.99
TCTAGGATGC	1.07
TCTAGGTGGC	1.08
TCTAGTAGTT	1.01
TCTAGTTATA	1
TCTATAAGGC	1.02
TCTATAGTGA	1.03
TCTATGGGCG	1.08
TCTATTGAGG	1.01
TCTCACGTCA	1.29
TCTCAGAAAG	1.02
TCTCATAAAT	1.02
TCTCATAGAG	1.03
TCTCATTT	1.01
TCTCCCCTG	1.38
TCTCCGAAGG	1.59
TCTCCGACGG	1.66
TCTCCTAAGC	1.1
TCTCGATTCA	1.07
TCTCGCTTTC	2.49
TCTCGGGCTC	2.63
TCTCGGGGGT	1.01
TCTCGTCAAT	3.24
TCTCGTGAAA	1.02
TCTCTCACAG	1.13
